The source of these data is article PMC4336329 (PLoS ONE, 2015).

The whole screen tested about 310,000 compounds, of which about 14,000 (4.5%) showed an effect of 50% or more. Effects have a minus sign here. Some of the results follow.
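Also: peak tail current of the secondary pulse compared with the same well before compound.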

For the test, the target named is human ether-à-go-go-related gene (hERG) potassium channel (human, UniProt Q12809). As to the kind of experiment: primary screen, population patch clamp on CHO cells stably expressing hERG.
Chain of human ether-à-go-go-related gene (hERG) potassium channel (Q12809 whole entry, looked up): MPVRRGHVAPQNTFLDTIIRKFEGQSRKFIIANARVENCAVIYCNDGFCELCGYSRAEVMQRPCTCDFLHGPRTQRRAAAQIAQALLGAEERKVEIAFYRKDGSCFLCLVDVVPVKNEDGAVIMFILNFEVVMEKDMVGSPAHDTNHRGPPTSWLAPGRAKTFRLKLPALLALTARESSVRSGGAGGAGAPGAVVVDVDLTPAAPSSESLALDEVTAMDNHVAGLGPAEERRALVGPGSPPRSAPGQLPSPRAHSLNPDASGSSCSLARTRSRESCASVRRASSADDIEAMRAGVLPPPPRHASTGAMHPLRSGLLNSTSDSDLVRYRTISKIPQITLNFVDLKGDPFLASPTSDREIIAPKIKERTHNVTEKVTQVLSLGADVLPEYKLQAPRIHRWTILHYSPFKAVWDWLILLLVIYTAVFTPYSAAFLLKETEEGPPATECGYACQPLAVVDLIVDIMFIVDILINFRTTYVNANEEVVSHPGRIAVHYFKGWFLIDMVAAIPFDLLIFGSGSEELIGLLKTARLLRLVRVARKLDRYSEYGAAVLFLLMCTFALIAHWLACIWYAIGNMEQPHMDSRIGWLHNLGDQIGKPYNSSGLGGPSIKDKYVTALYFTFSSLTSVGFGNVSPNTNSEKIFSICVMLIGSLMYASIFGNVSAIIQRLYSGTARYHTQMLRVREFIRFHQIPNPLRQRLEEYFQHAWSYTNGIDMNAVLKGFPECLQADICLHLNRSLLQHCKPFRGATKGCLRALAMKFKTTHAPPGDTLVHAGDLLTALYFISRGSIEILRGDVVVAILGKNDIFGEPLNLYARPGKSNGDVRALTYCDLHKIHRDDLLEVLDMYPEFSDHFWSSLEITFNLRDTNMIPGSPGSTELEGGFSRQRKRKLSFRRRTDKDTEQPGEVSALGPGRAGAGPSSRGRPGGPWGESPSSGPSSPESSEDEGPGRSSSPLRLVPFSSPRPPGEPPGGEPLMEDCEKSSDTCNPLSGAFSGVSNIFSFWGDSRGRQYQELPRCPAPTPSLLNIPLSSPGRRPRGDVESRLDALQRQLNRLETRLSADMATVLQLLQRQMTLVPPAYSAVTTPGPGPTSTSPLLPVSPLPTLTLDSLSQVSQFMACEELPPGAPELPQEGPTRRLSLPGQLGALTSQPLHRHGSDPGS
As for `Cc1c(S(=O)(=O)N2CCN(c3cccc(C(F)(F)F)c3)CC2)c(=O)n(C)c(=O)n1C`, the “hERG current change (%, negative = inhibition) at 10uM” value was -2.03%.

For `O=C(NNC(=O)C1CCN(C(=O)Nc2ccccc2)CC1)c1ccc(F)cc1`, the “hERG current change (%, negative = inhibition) at 10uM” value came to 11.3%.

As for `Cc1cc(C)c2c(=O)[nH]c(=O)n(Cc3ccccc3)c2n1`, the “hERG current change (%, negative = inhibition) at 10uM” value is 6.73%. The value for `COC(=O)Nc1ccc(S(=O)(=O)N2CCCC(C(=O)Nc3cccc4c3OCCO4)C2)cc1` (stereo not drawn) was 5.26%. Take `CC(O)C(NS(=O)(=O)c1ccc(Cl)cc1)C(=O)OCc1cc([N+](=O)[O-])cc2c1OCOC2` (stereo not drawn): the “hERG current change (%, negative = inhibition) at 10uM” value is -11.8%. The value for `CCC[N+](C)(C)C(C)C(OC(C)=O)c1ccccc1.[I-]` (stereo not drawn) was 15.5%. The same measure for `O=C(CSc1nc2ccccc2o1)NCC(=O)c1ccccc1`: -3.02%; for `O=C(CNC(=O)c1ccc2c(c1)OCCO2)N/N=C/c1ccc([N+](=O)[O-])cc1`: 15.9%; for `NC(=O)C1CCN(CCCNC2CC(=O)N(Cc3ccc(N4CCCC4=O)cc3)C2=O)CC1` (stereo not drawn): 8.34%. The value for `CCOC(=O)n1c(=O)n(Cc2cccc(F)c2)c2ccccc21` was -30.5%; that for `CCOC(=O)c1nonc1NC(C)=O` was 16.2%. Take `CCCCC(OC(=O)c1ccco1)C(=O)NCc1ccc(C)cc1` (stereo not drawn): the “hERG current change (%, negative = inhibition) at 10uM” value is -0.428%.

For the molecule `CCOC(=O)Cn1c(=NC(=O)c2ccc([N+](=O)[O-])s2)sc2ccccc21`, the “hERG current change (%, negative = inhibition) at 10uM” value was -14.3%. As for `COc1ccc(S(=O)(=O)N2CCN(c3nc(-c4cccnc4)nc4ccccc34)CC2)cc1`, the “hERG current change (%, negative = inhibition) at 10uM” value is -39%. With `COCCCn1c(SCC(=O)Nc2ccc(C(C)=O)cc2)nc2ccccc2c1=O`, the “hERG current change (%, negative = inhibition) at 10uM” value is on record as -51.5%. Take `Cc1c(NC(=S)NC(=O)c2cccc(Cl)c2)c(=O)n(-c2ccccc2)n1C`: the “hERG current change (%, negative = inhibition) at 10uM” value turned out to be 15.5%. `CC(C)C1Nc2ccc(C(=O)NCc3ccco3)cc2NC1=O` (stereo not drawn): the “hERG current change (%, negative = inhibition) at 10uM” value is recorded as -5.2%. The same measure for `O=S(=O)(NCc1ccco1)c1cnc(Cl)c(Cl)c1`: -6.19%; for `COc1ccccc1NC(=O)/C=C/c1cc([N+](=O)[O-])ccc1OC(F)F`: 2.86%; for `COc1ccc(CN2CN(S(=O)(=O)c3ccccc3)c3nc4ccccc4nc32)cc1`: 1.04%. The value for `CC1(C(=O)CSc2nc3ccccc3[nH]2)CCC(=O)O1` (stereo not drawn) was -70.8%; that for `CNC(=S)N/N=C/c1ccc(N(C)C)cc1` was 0.611%.

Turning to `CC(C)(C)CN1CCC(Oc2cccc(C(=O)N3CCNC(=O)C3(C)C)c2)CC1`, the “hERG current change (%, negative = inhibition) at 10uM” value is -15.2%. For the molecule `O=C1CC(N2CCC(c3nc4ccccc4s3)CC2)C(=O)N1Cc1ccccc1` (stereo not drawn), the “hERG current change (%, negative = inhibition) at 10uM” value was -43.9%.

For the molecule `CCOC(=O)c1c(C)[nH]c(C(=O)COC(=O)CNS(=O)(=O)c2ccc(C)cc2)c1C`, the “hERG current change (%, negative = inhibition) at 10uM” value came out at 11.8%. Turning to `CN(C)C(=O)c1ccc(-n2cccn2)nc1`, the “hERG current change (%, negative = inhibition) at 10uM” value turned out to be 7.34%. The same measure for `CCOC(=O)c1c(C)[nH]c(C(=O)N2CCN(CC)CC2)c1C`: 20.7%; for `Cl.N=c1sccn1CC(=O)Nc1cc(S(=O)(=O)N2CCCC2)ccc1Cl`: -39.5%. Consider `C[C@H](NC(=O)Nc1cccc(Br)c1)C(=O)O`, for which the “hERG current change (%, negative = inhibition) at 10uM” value stood at 14%. `COc1cccc(C2CC(c3cccc(Br)c3)n3nc(N)nc3N2)c1` (stereo not drawn): the “hERG current change (%, negative = inhibition) at 10uM” value was -12.4%. For the molecule `CCOCCCNCc1ccc(OCCC(C)C)c(OC)c1.O=C(O)C(=O)O`, the “hERG current change (%, negative = inhibition) at 10uM” value was -16.2%.

Consider `CC(=O)Nc1ccc(C(=O)Nc2ccc(S(=O)(=O)N3CCOCC3)cc2)cc1`, for which the “hERG current change (%, negative = inhibition) at 10uM” value stood at 18.1%. For `Cl.O=C(CCN(CCO)Cc1ccccc1)Nc1ccc(Br)cc1`, the “hERG current change (%, negative = inhibition) at 10uM” value is on record as -46.1%.

Take `O=C(Nc1ccc(Cl)cc1)c1cccc(OC(=S)N2CCOCC2)c1`: the “hERG current change (%, negative = inhibition) at 10uM” value was found to be 9.45%. The value for `COc1ccc(C(=S)N2CCN(c3ccccc3C)CC2)cc1` was -22.7%; that for `CCn1cc(/C=C(\NC(=O)c2cc(OC)c(OC)c(OC)c2)C(=O)N2CCN(C)CC2)c2ccccc21` was 13.7%.

On to `Br.CCN(CC)CCn1c(=N)n(CCOc2ccccc2)c2ccccc21`, for which the “hERG current change (%, negative = inhibition) at 10uM” value was -53.6%. The value for `Cl.OC(COc1ccc(OCC(O)CN2CCCCCC2)cc1)CN1CCCCCC1` (stereo not drawn) was 9.75%; that for `CC1=C(C(=O)OC2CCCC2)C(c2coc3ccc(C)cc3c2=O)C2=C(CCCC2=O)N1` (stereo not drawn) was -13.1%; that for `CCOC(=O)CSc1nnc(CSc2nc3sc4c(c3c(=O)[nH]2)CCC4)n1-c1ccccc1` was -14.8%.

In the case of `Cc1ccccc1CC(=O)NCCN1CCOCC1`, the “hERG current change (%, negative = inhibition) at 10uM” value was 26.8%. With `COc1ccc2cc(-c3csc(-c4cccnc4)n3)ccc2c1`, the “hERG current change (%, negative = inhibition) at 10uM” value came to 22.6%. The value for `Cc1ccc(C(=O)NNC(=O)CSc2nnc(C3CC3)n2C)cc1` was 1.12%; that for `O=[N+]([O-])c1ccc(N2CCOCC2)cn1` was 15.4%; that for `CCC(C)NC(=O)Cn1c(=O)n(CCCC(=O)NCc2ccccc2Cl)c(=O)c2ccccc21` (stereo not drawn) was -4.22%.
